# In PubChem BioAssay AID2675 (National Center for Advancing Translational Sciences (NCATS), 2010):
# The whole screen tested about 280,000 compounds, of which about 100 (0.036%) were called active. Inconclusive results, whose numbers are uncertain, are shown with a selection of clear calls. The call rests on the fitted dose curve; in most records, active means well fitted inhibition curve with a large enough effect in the signal ratio, with a control signal flat (not every such curve was filed as active); inconclusive means small, poorly fitted or top-dose-only effect, or effect the other way, or a change in a side signal; inactive means no such curve, though single readings can be large or run the other way; the % refers to the signal ratio. A potency beside an inconclusive call is a rough fit, not a confirmed value. A note “side channel” means that the fit belongs to a control or component signal, not to the main read-out.
# Molecular target: Muscleblind-like protein 1 (Homo sapiens) (UniProt Q9NR56)
# Assay: qHTS Assay for Inhibitors of MBNL1-poly(CUG) RNA binding
# Conditions: TR-FRET MBNL1-His/biotin-(CUG)12 binding, 665/545 ratio; activity change, negative = inhibition: at 57.5 µM (top of the series)
# Method in brief: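 Compounds (final 92 nM to 58 uM) are added to His-tagged MBNL1 and biotin-(CUG)12, then terbium anti-His antibody and streptavidin-XL665 (5 nM final). After 60 min at room temperature, the 665/545 nm ratio is read.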
# On the % scale 0 is the no-effect control and ±100 the full control effect; potency means the concentration at half of the fitted maximal effect; tags describe the fitted curve by direction and shape or compound fluorescence and quenching.
# Chain of UniProt Q9NR56 (Q9NR56 whole entry, looked up): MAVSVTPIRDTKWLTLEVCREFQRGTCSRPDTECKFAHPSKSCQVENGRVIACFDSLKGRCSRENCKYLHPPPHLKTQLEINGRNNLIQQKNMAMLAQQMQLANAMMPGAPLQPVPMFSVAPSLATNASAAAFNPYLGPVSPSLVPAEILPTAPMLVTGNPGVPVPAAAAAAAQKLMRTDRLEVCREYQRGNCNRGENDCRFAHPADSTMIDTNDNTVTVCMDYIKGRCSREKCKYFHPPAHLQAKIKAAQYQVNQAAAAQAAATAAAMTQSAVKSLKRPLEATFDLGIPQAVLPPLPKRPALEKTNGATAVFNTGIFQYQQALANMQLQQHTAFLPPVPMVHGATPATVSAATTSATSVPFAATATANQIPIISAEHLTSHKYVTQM
Compound,"activity change, negative = inhibition",Potency
Cc1c(CN2CCCC(C(=O)Nc3cccc(-n4cccn4)c3)C2)cnn1C (centres undefined),inactive: 1.17%,
COCC(=O)Nc1nc2ccccc2s1,inactive: 7.51%,
CC1CC(=O)Nc2ccccc2N1S(=O)(=O)c1ccc(Br)cc1 (centres undefined),,"inconclusive: 39.8 µM [quencher, side channel, single point]"
O=C(NC12CC3CC(CC(C3)C1)C2)c1ccc([N+](=O)[O-])o1,,"inconclusive: 12.6 µM [quencher, side channel, partial curve]"
O=C(O)c1cccc(N2C(=O)c3ccc(Oc4ccc(Cl)cc4)cc3C2=O)c1,,"inconclusive: 22.4 µM [quencher, side channel, partial curve]"
C/C=C\C(=O)Nc1cccc(C2=NOC3(C2)C[C@H](C(N)=O)N(C(=O)Cc2ccc([N+](=O)[O-])cc2)C3)c1 (some centres undefined),,"inconclusive: 28.2 µM [quencher, single point]"
Cc1cc(C)n(-c2nc3ccccc3nc2N2CCN(S(=O)(=O)c3cccc(C#N)c3)CC2)n1,,"inconclusive: 39.8 µM [fluorescent, side channel, single point]"
CC(=O)c1ccc2cccc3c2c1N=CN3C,,"inconclusive: 28.2 µM [quencher, side channel, partial curve]"
CN1CCN(C(=O)c2ccc3ccccc3c2)CC1,inactive: 8.16%,
O=C(NNc1nc(=O)c2cccnc2s1)c1ccccc1O,inactive: 17.8%,
Cc1cc(C)nc(SCC(=O)Nc2ccc(S(=O)(=O)Nc3ncccn3)cc2)n1,,"inconclusive: 4.47 µM [quencher, side channel, full curve]"
CCn1c(O)c(C=Nc2ccccc2)n(-c2ccccc2)c1=S,,"inconclusive: 14.1 µM [quencher, partial curve]"
Cc1ccc2c(c1)COc1c3ccc(C(=O)N[C@@H](C)CO)cc3nn1-2,,"inconclusive: 12.6 µM [quencher, side channel, partial curve]"
COc1ccc2nc(C)cc(N3CC(C)OC(C)C3)c2c1 (centres undefined),,"inconclusive: 15.8 µM [quencher, side channel, partial curve]"
O=S(=O)(c1ccc(Cl)nc1)N1CCN(c2ncccn2)CC1,,"inconclusive: 15.8 µM [fluorescent, side channel, partial curve, poor fit]"
N#CC1=C(SCC(=O)c2ccc(Br)cc2)NC2=C(C(=O)CCC2)C1c1ccco1 (centres undefined),inactive: 26.1%,
O=C1C[C@@H](c2ccc(O[C@@H]3O[C@H](CO)[C@@H](O)[C@H](O)[C@H]3O)cc2)Oc2cc(O)ccc21,,"inconclusive: 28.2 µM [quencher, side channel, single point]"
CN(C)c1ccc2nc3c(=O)[nH]c(=O)nc-3n(CC(O)C(O)C(O)CO)c2c1 (centres undefined),,"inconclusive: 3.16 µM [quencher, side channel, partial curve]"
COC(=O)c1cc(C(=O)N2CCc3ccccc32)cc([N+](=O)[O-])c1,,"inconclusive: 14.1 µM [quencher, side channel, partial curve]"
O=C(COC(=O)c1cnccn1)c1ccc2ccccc2c1,,"inconclusive: 28.2 µM [quencher, side channel, partial curve]"

Compound,"activity change, negative = inhibition",Potency
Cc1ccnc(NS(=O)(=O)c2ccc(NC(=O)c3cc(=O)c4ccccc4o3)cc2)n1,,"inconclusive: 3.16 µM [quencher, side channel, full curve]"
CCCc1cc(-n2ccnc2)n2c(nc3ccccc32)c1C#N,,"inconclusive: 39.8 µM [quencher, side channel, single point]"
COC(=O)C1=C(C)NC2=C(C(=O)CCC2)C1c1ccc(-c2ccsc2C(=O)OC)o1 (centres undefined),,"inconclusive: 31.6 µM [quencher, side channel, single point]"
CCC(C)[C@H](NC(=O)N1CCn2c1nc1ccccc12)C(=O)NCc1ccc(OC)cc1 (some centres undefined),inactive: -2.53%,
CCc1ccc(N(CC(=O)NCc2cccnc2)S(=O)(=O)c2ccccc2)cc1,,"inconclusive: 3.16 µM [quencher, side channel, full curve]"
O=[N+]([O-])c1ccc(CSc2nnc(-c3cccnc3)o2)cc1,,"inconclusive: 6.31 µM [quencher, side channel, partial curve]"
O=C(/C=C/C=C/c1ccccc1)c1ccco1,,"inconclusive: 28.2 µM [quencher, side channel, partial curve]"
COc1ccc(C2=NC(C)(C)Cc3cc(OC)c(OC)cc32)cc1OC,,"inconclusive: 28.2 µM [quencher, side channel, single point]"
O=C(NCCc1ccccc1)C1CCN(C(=O)c2sccc2-n2cccc2)CC1,,"inconclusive: 3.98 µM [quencher, side channel, single point]"
COc1ccccc1NC(=O)c1nn(-c2ccccc2)ccc1=O,,"inconclusive: 3.55 µM [quencher, side channel, full curve, poor fit]"
COc1ccc(C2NC(c3ccc(OC)c(OC)c3OC)C(C)C(=O)C2C)c(OC)c1OC (centres undefined),,"inconclusive: 39.8 µM [quencher, side channel, single point]"
COc1cccc(NS(=O)(=O)c2ccc3c(c2)N(C(C)=O)CCO3)c1,inactive: -5.72%,
Cc1ccc(S(=O)(=O)N2CCN(c3ccc([N+](=O)[O-])c(NCCN4CCOCC4)c3)CC2)cc1,,"inconclusive: 17.8 µM [quencher, side channel, partial curve, poor fit]"
C=CCN1C(=O)C(CC(=O)O)SC1=Nc1ccc(N=Nc2ccccc2)cc1 (centres undefined),,"inconclusive: 15.8 µM [quencher, side channel, partial curve]"
OC(COCc1ccccc1)CN1CCc2ccccc2C1 (centres undefined),inactive: -4.09%,
O=C(CN1CCOCC1)Nc1cc([N+](=O)[O-])ccc1Cl,,"inconclusive: 2.82 µM [quencher, side channel, full curve]"
CC(C)Oc1cccc(C(=O)NC(=S)Nc2ccccc2)c1,inactive: -4.71%,
COc1cc(C(=O)NC(=S)N(C)Cc2ccccc2)cc(OC)c1OC,inactive: -4.34%,
Fc1ccc(NC(=S)NCc2cccnc2)cc1,inactive: -0.716%,
Cc1cc(=O)[nH]c(N/N=C/c2ccc([N+](=O)[O-])cc2)n1,,"inconclusive: 3.98 µM [quencher, side channel, full curve]"

Compound,"activity change, negative = inhibition",Potency
CCOC(=O)c1sc(Nc2nc(OC)cc(OC)n2)nc1C,inactive: 0.0694%,
Cc1csc(N/N=C/c2ccc([N+](=O)[O-])cc2)n1,,"inconclusive: 4.47 µM [quencher, side channel, full curve]"
CCn1nc(NS(=O)(=O)c2ccc(NC(C)=O)cc2)c2cc3ccc(C)cc3nc21,,"inconclusive: 22.4 µM [quencher, side channel, single point]"
O=C(N/N=C/c1ccoc1)c1ccc(Cl)cc1,,"inconclusive: 39.8 µM [quencher, side channel, single point]"
CCOC(=O)c1nnn(CC(=O)N2N=C(c3ccc(Cl)cc3)CC2c2ccc(OC)cc2)c1C(=O)OCC (centres undefined),,"inconclusive: 0.708 µM [quencher, side channel, single point]"
O=C(Nc1ccc[n+](CC(=O)c2cccc3ccccc23)c1)c1ccccc1,,"inconclusive: 10 µM [quencher, side channel, partial curve]"
O=C1Nc2ccccc2Nc2ccc([N+](=O)[O-])cc21,,"inconclusive: 3.55 µM [quencher, side channel, full curve]"
FC(F)(F)c1cccc(NC(=S)N(CCCN2CCCC2)Cc2cccn2Cc2ccc(Cl)cc2)c1,inactive: -3.02%,
O=C(Nc1ccccc1-c1ccccc1)c1cccc([N+](=O)[O-])c1,,"inconclusive: 15.8 µM [quencher, side channel, partial curve]"
COc1ccc(-c2nc3n(n2)C(c2ccncc2)C(C(N)=O)=C(C)N3)cc1 (centres undefined),inactive: -2.82%,
CCOC(=O)N1CCC(Nc2c(Nc3cccc(CC)c3)c(=O)c2=O)CC1,,"inconclusive: 14.1 µM [quencher, side channel, partial curve]"
Cc1cc(C)c([N+](=O)[O-])cc1-c1ccc(/C=N/c2c(-c3ccco3)nc3ccccn23)o1,,"inconclusive: 25.1 µM [quencher, side channel, partial curve]"
COC(=O)c1cc2n3ccccc3c(C)c(-c3ccccc3)c-2c1C(=O)OC,,"inconclusive: 11.2 µM [quencher, side channel, partial curve]"
COc1ccc2cc(C(=O)N3CCCCCC3)sc(=O)c2c1OC,,"inconclusive: 15.8 µM [quencher, side channel, partial curve]"
O=C(c1ccccc1)c1n[nH]c(-c2ccccc2)cc1=O,inactive: -4.29%,
NC(=O)C(CC(=O)O)NC(=O)[C@@H]1CCCCNc2c(I)cc([N+](=O)[O-])cc2C(=O)N[C@@H](CO)C(=O)NCC(=O)N1 (some centres undefined),,"inconclusive: 14.1 µM [quencher, side channel, partial curve]"
CC(=O)c1sc(N/N=C/c2cccc(O)c2)nc1C,,"inconclusive: 8.91 µM [quencher, side channel, partial curve]"
O=C(NCCN1CCOCC1)c1cc2cc(Br)ccc2oc1=O,,"inconclusive: 2 µM [quencher, side channel, partial curve]"
CC(Oc1ccc2c(-c3ccccc3)cc(=O)oc2c1)C(=O)NCCN1CCOCC1 (centres undefined),,"inconclusive: 10 µM [quencher, side channel, partial curve]"
